Article PMC4363092 (Journal of medicinal chemistry, 2014)

Tested on: NPP1,3 and NTPDase1,2,3,8
Settings: pooled over the six enzymes

Row | SMILES | hydrolysis by NPP1,3 and NTPDase1,2,3,8 [%]
1 | Nc1ncnc2c1ncn2[C@@H]1O[C@H](COP(=O)(O)CP(=O)(O)OP(O)(O)=S)[C@@H](O)[C@H]1O [compound 3] | < 5
2 | Nc1ncnc2c1nc(S)n2[C@@H]1O[C@H](COP(=O)(O)OP(=O)(O)OP(=O)(O)O)[C@@H](O)[C@H]1O [compound 4] | < 5
